The values below come from the antibiotic and cytotoxicity screens of Wong et al. (2023).

In one experiment the test system is HSkMC. Description: cytotoxicity call (relative viability < 0.9). Particulars: 10 µM.
A further experiment concerns HepG2. Description: cytotoxicity call (relative viability < 0.9). Particulars: 10 µM.
The next experiment concerns S. aureus RN4220. The experiment can be described thus: growth inhibition call (relative growth <= 0.2). Particulars: 50 µM.

Molecules are shown by their SMILES. Some of the results follow.

`Cc1ccc(S(=O)(=O)Nc2ccc3c(c2)C(=O)N([C@H](C)CO)C[C@@H](C)[C@H](CN(C)S(=O)(=O)c2ccc(Cl)cc2)OCCCC[C@H](C)O3)cc1`: the cytotoxicity call in the experiment on HSkMC and in the experiment with HepG2 was “inactive” in each case. In addition, the growth inhibition call with S. aureus RN4220 was “inactive”.

Consider `COCC(=O)N1C[C@@H](C)[C@H](OC)CN(C)C(=O)c2cc(NC(=O)c3cc(C)on3)ccc2OC[C@H]1C`, for which the cytotoxicity call with HSkMC and in the experiment on HepG2 was “inactive” in each case. In the experiment with S. aureus RN4220, the growth inhibition call was “inactive”.

In the case of `O=C(C[C@@H]1CC[C@H](NC(=O)C2CC2)[C@@H](CO)O1)NCCCN1CCOCC1`, the cytotoxicity call in the experiment with HSkMC and with HepG2 was “inactive” each time. Moreover, in the experiment with S. aureus RN4220, the growth inhibition call is “inactive”.

Take `C[C@@H]1CN([C@H](C)CO)C(=O)Cc2cc(NS(=O)(=O)c3cn(C)cn3)ccc2O[C@@H]1CN(C)S(=O)(=O)c1ccc(F)cc1`: the cytotoxicity call in the experiment with HSkMC and in the experiment with HepG2 was “inactive” in each case. Further, the growth inhibition call in the experiment on S. aureus RN4220 was “inactive”.

In the case of `C[C@H](CO)N1C[C@H](C)[C@@H](CN(C)CC2CCCCC2)OCCCC[C@H](C)Oc2ccc(NC(=O)Nc3ccc(F)cc3)cc2C1=O`, in the experiment with HSkMC, the cytotoxicity call was “inactive”. Also, the cytotoxicity call in the experiment on HepG2 is “active”. Moreover, the growth inhibition call in the experiment with S. aureus RN4220 was “inactive”.

For `C[C@@H]1CN([C@@H](C)CO)C(=O)c2c(c3ccccc3n2C)-c2ccccc2CO[C@@H]1CN(C)Cc1cccc(F)c1`, the cytotoxicity call in the experiment on HSkMC and in the experiment on HepG2 was “inactive” throughout. Also, in the experiment with S. aureus RN4220, the growth inhibition call is “inactive”.

For `C=CCC[C@@H](Cc1ccc(F)cc1)C(=O)O[C@H](CNC(=O)[C@@H](CC=C)CC(=O)N[C@@H](CO)Cc1ccccc1)c1ccccc1`, the cytotoxicity call in the experiment with HSkMC and with HepG2 was “inactive” each time. In the experiment on S. aureus RN4220, the growth inhibition call was “inactive”.

Consider `C[C@@H]1CN([C@@H](C)CO)C(=O)c2cc(NC(=O)C3CCCCC3)ccc2O[C@@H](C)CCCCO[C@H]1CN(C)Cc1ccc(C(F)(F)F)cc1`, for which, in the experiment with HSkMC, the cytotoxicity call is “inactive”. The cytotoxicity call in the experiment on HepG2 is “active”. Also, the growth inhibition call in the experiment on S. aureus RN4220 was “inactive”.

Consider `C[C@@H]1CN([C@@H](C)CO)C(=O)c2cc(NC(=O)NC3CCCCC3)ccc2O[C@H]1CN(C)Cc1ccc(-c2ccccc2)cc1`, for which the cytotoxicity call in the experiment on HSkMC and in the experiment on HepG2 was “inactive” throughout. In addition, the growth inhibition call in the experiment on S. aureus RN4220 is “inactive”.

For the compound `CNC(=O)C[C@H]1Nc2ccccc2NC1=O`, the cytotoxicity call with HSkMC and with HepG2 was “inactive” throughout. Moreover, the growth inhibition call with S. aureus RN4220 is “inactive”.

On to `C[C@@H]1CCCCO[C@H](CN(C)Cc2ccc(C(=O)O)cc2)[C@H](C)CN([C@@H](C)CO)C(=O)c2cc(NC(=O)Cc3ccccc3)ccc2O1`, for which the cytotoxicity call in the experiment with HSkMC and in the experiment with HepG2 was “inactive” throughout. The growth inhibition call in the experiment with S. aureus RN4220 is “inactive”.

Turning to `NS(=O)(=O)c1cc2c(cc1Cl)NC(C(Cl)Cl)NS2(=O)=O` (stereo not drawn), the cytotoxicity call in the experiment on HSkMC and in the experiment with HepG2 was “inactive” throughout. The growth inhibition call in the experiment on S. aureus RN4220 is “inactive”.

On to `C[C@H]1CCCCO[C@H](CN(C)C(=O)Nc2ccc(F)cc2)[C@@H](C)CN([C@@H](C)CO)C(=O)c2cc(NC(=O)Nc3ccc(C(F)(F)F)cc3)ccc2O1`, for which the cytotoxicity call in the experiment on HSkMC and in the experiment with HepG2 was “inactive” in each case. In the experiment with S. aureus RN4220, the growth inhibition call was “inactive”.

With `CC(C)NC(=O)Nc1ccc2c(c1)C(=O)N([C@@H](C)CO)C[C@@H](C)[C@H](CN(C)CC1CCCCC1)OCCCC[C@H](C)O2`, the cytotoxicity call with HSkMC and in the experiment with HepG2 was “inactive” throughout. Moreover, the growth inhibition call in the experiment on S. aureus RN4220 is “inactive”.

Take `Cc1ccc(S(=O)(=O)Nc2ccc3c(c2)C(=O)N([C@H](C)CO)C[C@@H](C)[C@H](CN(C)Cc2ccc(Cl)c(Cl)c2)O3)cc1`: the cytotoxicity call with HSkMC is “active”. Besides, the cytotoxicity call with HepG2 was “inactive”. Besides, in the experiment on S. aureus RN4220, the growth inhibition call is “inactive”.

For `C[C@H](CO)N1C[C@H](C)[C@@H](CN(C)C(=O)Cc2ccncc2)Oc2ncc(C#CC3(O)CCCC3)cc2C1=O`, the cytotoxicity call in the experiment on HSkMC and in the experiment with HepG2 was “inactive” each time. The growth inhibition call in the experiment with S. aureus RN4220 was “inactive”.

Regarding `C[C@@H]1CN([C@H](C)CO)C(=O)c2cc(C#CCN(C)C)cnc2O[C@H]1CN(C)S(=O)(=O)c1cn(C)cn1`, the cytotoxicity call in the experiment on HSkMC and in the experiment with HepG2 was “inactive” in each case. The growth inhibition call in the experiment on S. aureus RN4220 is “inactive”.

As for `C[C@H]1[C@H]([Si](C)(C)F)[C@@H](CCO)O[C@]12C(=O)N(Cc1cccc(N(C=O)c3ccccc3)c1)c1ccccc12`, the cytotoxicity call in the experiment on HSkMC and in the experiment with HepG2 was “inactive” each time. Also, in the experiment on S. aureus RN4220, the growth inhibition call was “inactive”.

As for `C[C@H]1CN([C@@H](C)CO)C(=O)c2cc(-c3ccncc3)cnc2O[C@@H]1CN(C)C(=O)Nc1ccc2c(c1)OCO2`, the cytotoxicity call in the experiment on HSkMC and in the experiment on HepG2 was “inactive” in each case. For the same compound, the growth inhibition call in the experiment with S. aureus RN4220 was “inactive”.

As for `COc1ccc(S(=O)(=O)N(C)C[C@@H]2OCCCC[C@@H](C)Oc3ccc(NC(=O)NC4CCCCC4)cc3C(=O)N([C@@H](C)CO)C[C@H]2C)cc1`, the cytotoxicity call with HSkMC and in the experiment on HepG2 was “inactive” throughout. Besides, the growth inhibition call in the experiment on S. aureus RN4220 is “inactive”.

For `CN1C(=O)c2cc(NC(=O)C3CCCC3)ccc2OC[C@@H]2O[C@H](CC(=O)NCCc3ccncc3)CC[C@H]21`, the cytotoxicity call with HSkMC and with HepG2 was “inactive” in each case. Moreover, the growth inhibition call in the experiment with S. aureus RN4220 is “inactive”.

For `C[C@H](NC(=O)N(C)C[C@@H]1OCc2ccccc2-c2c(n(C)c3ccccc23)C(=O)N([C@@H](C)CO)C[C@H]1C)c1ccccc1`, the cytotoxicity call in the experiment on HSkMC and in the experiment on HepG2 was “inactive” each time. Moreover, in the experiment on S. aureus RN4220, the growth inhibition call is “inactive”.

Take `COc1cccc2c1C(=O)c1c(O)c3c(c(O)c1C2=O)C[C@@](O)(C(=O)CO)C[C@@H]3O[C@H]1C[C@H](N)[C@@H](O)[C@H](C)O1`: in the experiment on HSkMC (human skeletal muscle cells), the cytotoxicity call is “inactive”. For the same compound, in the experiment on HepG2, the cytotoxicity call is “active”. Also, in the experiment on S. aureus RN4220, the growth inhibition call is “active”.

Regarding `CC1(C)O[C@@H]2[C@@H](CO[C@@]3(COS(N)(=O)=O)OC(C)(C)O[C@@H]23)O1`, the cytotoxicity call in the experiment with HSkMC and with HepG2 was “inactive” in each case. In addition, the growth inhibition call in the experiment with S. aureus RN4220 was “inactive”.

Take `C[C@H](CO)N1C[C@H](C)[C@H](CN(C)S(=O)(=O)c2ccccc2)Oc2ncc(-c3ccc(F)cc3)cc2C1=O`: the cytotoxicity call in the experiment with HSkMC and in the experiment with HepG2 was “inactive” each time. Further, in the experiment with S. aureus RN4220, the growth inhibition call is “inactive”.

On to `COc1ccc(S(=O)(=O)N(C)C[C@H]2OCCCC[C@H](C)Oc3ccc(NC(=O)NC4CCCCC4)cc3C(=O)N([C@@H](C)CO)C[C@@H]2C)cc1`, for which the cytotoxicity call in the experiment with HSkMC and with HepG2 was “inactive” in each case. Moreover, in the experiment on S. aureus RN4220, the growth inhibition call was “inactive”.
